Results: article PMC6919601, “Identification of Plasmodium dipeptidyl aminopeptidase allosteric inhibitors by high throughput screening” (PLoS ONE, 2019)
Several values for one entry are separate records, joined by “and”; a condition that tells them apart may be missing. Equal values may be shown once. About 230 (0.21%) of roughly 110,000 compounds showed an effect of 50% or more. The list shows a part of the results.

Target: DPAP1 (Plasmodium falciparum, UniProt Q8IIJ9)
Test: primary screen, percent inhibition; read by cleavage of a fluorogenic dipeptide substrate; higher = more effect of the substance
Parameters: species or system P. falciparum D10 trophozoite lysates; single well
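Also: 30 min substrate incubation versus DMSO and 10 µM JCP410 controls.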

Chain of DPAP1 (Q8IIJ9 whole entry, looked up): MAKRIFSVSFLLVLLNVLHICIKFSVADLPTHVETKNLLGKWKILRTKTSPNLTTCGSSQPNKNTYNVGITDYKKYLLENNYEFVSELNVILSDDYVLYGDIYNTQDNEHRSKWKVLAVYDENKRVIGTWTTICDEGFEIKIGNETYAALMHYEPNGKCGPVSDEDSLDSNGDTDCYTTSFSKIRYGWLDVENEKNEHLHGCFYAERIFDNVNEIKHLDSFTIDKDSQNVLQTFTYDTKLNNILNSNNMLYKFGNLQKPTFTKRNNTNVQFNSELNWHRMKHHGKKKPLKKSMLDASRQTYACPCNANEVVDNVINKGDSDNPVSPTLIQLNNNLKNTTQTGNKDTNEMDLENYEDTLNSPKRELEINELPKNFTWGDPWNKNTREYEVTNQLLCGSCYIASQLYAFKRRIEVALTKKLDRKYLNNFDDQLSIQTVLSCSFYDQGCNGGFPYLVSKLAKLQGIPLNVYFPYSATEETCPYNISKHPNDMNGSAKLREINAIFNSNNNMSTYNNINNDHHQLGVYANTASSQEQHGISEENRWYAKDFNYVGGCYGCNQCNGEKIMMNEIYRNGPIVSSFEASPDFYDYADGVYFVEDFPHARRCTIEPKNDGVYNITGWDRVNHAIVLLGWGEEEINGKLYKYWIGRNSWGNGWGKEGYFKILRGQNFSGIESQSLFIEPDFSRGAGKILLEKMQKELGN

SMILES	% Inhibition @ 10 uM
CCC(=O)Nc1ccc2nc(SCC(=O)N3CCOCC3)sc2c1	-4.67%
NS(=O)(=O)c1ccc(NC(=O)C2CCN(C(=O)c3cccs3)CC2)cc1	4.53%
O=S(=O)(NCC(c1ccccc1)N1CCCCCC1)c1ccc(Cl)cc1 (stereo not shown)	5.7%
COc1ccc2nc(N3CCCC(C(=O)NCCCOC(C)C)C3)sc2c1 (stereo not shown)	-3.79%
Brc1ccc(-n2nnnc2-c2ccccc2)c(Br)c1	7.5%
CCCn1c(=N)n(CC(=O)c2cccs2)c2ccccc21	-4.03%
Cc1cc(C(F)(F)F)nn1CC(=O)Nc1ccc(Cl)c(Cl)c1	3.96% and 4.31%
COc1ccc(-c2cn3c(n2)sc2cc(C(=O)NCCN(C)C)ccc23)cc1	4.03%
Cc1sc(NC(=O)COc2ccc(-c3ccccc3)cc2)c(C(N)=O)c1C	-3.26%
O=C(O)C1Sc2ccccc2Oc2ccccc21 (stereo not shown)	3.75%
Cc1ccc(NS(=O)(=O)c2ccc(Cl)cc2)cc1O	-5.81%
COc1ccc(C(C)=O)cc1CN1CCCCC1	-2.44%
CCN(CC)C(=O)/C(=C/c1cn(CC)c2ccccc12)NC(=O)c1ccccc1OC	-1.74%
CC(C)C[C@H](NC(=O)[C@H]1CCCN1C#N)C(=O)OCc1ccccc1	0.744%
COc1ccc(-c2cn3c(n2)sc2cc(C(=O)N4CCN(c5ncccn5)CC4)ccc23)cc1	7.87%
CC1CC(C)CN(C(=O)C2CCCN(S(=O)(=O)c3c[nH]cn3)C2)C1 (stereo not shown)	1.26%
Cc1ccc2oc(-c3ccco3)c(O)c(=O)c2c1	0.0539%
Cn1c(=O)c2nc(N3CCCCCC3)[nH]c2n(C)c1=O	0.248%
CCOC(=O)C1CCN(Cc2cccc(F)c2)CC1	4.66%
O=C(Nc1ccccc1)c1ccc(Br)cc1	-4.11%
O=C(CN1N=C(c2ccccc2)CCC1=O)NCCC1=CCCCC1	3.79%
COc1nc(N2C(C)CCCC2C)nc(N2C(C)CCCC2C)n1 (stereo not shown)	-0.693%
O=C(Cn1ncn2nc(-c3cccs3)cc2c1=O)NCCCN1CCC(Cc2ccccc2)CC1	2.27%
CCSCCO/C(O)=C1\C(C)=NC2=C(C(=O)CC(c3ccccc3OC)C2)C1c1ccsc1 (stereo not shown)	-2.98%
O=C1CCC(=O)N1CCc1c[nH]c2ccc(OCc3ccccc3)cc12	-2.08%

SMILES	% Inhibition @ 10 uM
Cc1ccc(S(=O)(=O)NC2=NC(=O)/C(=C/c3ccccc3)S2)cc1	1.91%
CCOC(=O)c1ccc(CNCc2ccc(C)cc2)cc1	9.04%
Cc1cc(C)n2nc(SC(C)C(=O)NC3CCCCCCC3)nc2n1 (stereo not shown)	1.16%
COc1ccc(NC(=O)C2=C(C)Nc3nc(CCCO)nn3C2c2ccc(Cl)cc2)cc1 (stereo not shown)	13.2%
CCCN1C(=O)c2[nH]nc(-c3ccccc3)c2C1c1cccnc1 (stereo not shown)	-1.07%
c1ccc2c(c1)CCN(c1nc3ccccc3n3cnnc13)C2	26.6%
CN1CCN(Cc2ccc(-c3ccccc3)cc2)CC1	2.47%
Cc1ccc(S(=O)(=O)Nc2ccc(NC(=O)c3ccc(F)cc3)cc2)cc1	-3.26%
CCOc1ccc(S(=O)(=O)NC(C)(C)C)cc1C#N	1.84%
O=C(O)c1ccccc1C(=O)Nc1cccc([N+](=O)[O-])c1	-4.02%
O=C(Nc1ccc(O)cc1)c1cc2ccccc2c(=O)s1	6.18%
COCCCn1c(=O)c2sccc2n2c(CCCC(=O)NCc3ccc(OC)cc3)nnc12	-4.46%
Cc1ccc(OCc2nc(-c3ccccn3)no2)c(Br)c1	-3.39%
Cc1c(C(=O)NCc2ccc(F)cc2)oc2ccc3c(c12)C=CC(C)(C)O3	-1.11%
COc1ccc(C2C=C(c3ccc(C(C)C)cc3)Nc3ncnn32)cc1OC (stereo not shown)	-3.23%
O=C(CCCn1c2ccccc2c2cnnc(O)c21)NCCc1ccccc1	-2%
CCS(=O)(=O)N1CCC(C(=O)NC2CCCC(C)C2C)CC1 (stereo not shown)	0.514%
Cc1cc(C)cc(N(CC(=O)Nc2cccc(C(F)(F)F)c2)S(C)(=O)=O)c1	-10.2%
CCn1c2ccccc2c2cc(CN3CCCC(C)C3)ccc21 (stereo not shown)	-0.0494%
Cn1ncc2c(NCCc3ccc(Cl)cc3)ncnc21	2.72%
CCCCOc1ccc(C(=O)NCCSc2c[nH]c3ccccc23)cc1	0.505%
CC1(C)Cc2c(sc(N)c2C(=O)O)CO1	0.198%
COc1cccc(C(CC#N)OC(=O)c2ccc([N+](=O)[O-])cc2)c1 (stereo not shown)	0.00178%
O=C(Cn1ncc2c3ccccc3n(Cc3cccc(Cl)c3)c2c1=O)NCC1CCCO1 (stereo not shown)	-1.58%
O=C(Cn1cccc1C(=O)c1ccccc1)NC1CCCC1	25%

SMILES	% Inhibition @ 10 uM
Cc1cc2nc(CSc3nnc(NC(=O)COc4ccccc4C)s3)cc(=O)n2o1	-2.83%
Cn1c(C(=O)NCc2ccccc2)cc2sc(Cl)cc21	-1.37%
O=C(NCCCN1CCOCC1)c1ccc2nc(-c3ccco3)c(-c3ccco3)nc2c1	4.7%
COc1ccccc1CNC(=O)c1ccc(Cn2nc(C)c(Br)c2C)o1	-6.68%
COC(=O)C1=CN(Cc2cccs2)C=C(C(=O)OC)C1c1ccc2c(c1)OCO2	-1.46%
CC(C)N1C(=O)CCC1C(=O)NCCc1ccc(Cl)cc1 (stereo not shown)	-4.97%
Cc1ccccc1CS(=O)(=O)CCC(=O)NCc1ccc(F)cc1Cl	-0.0542%
O=C(CSc1nc(-c2ccco2)cc(C(F)(F)F)n1)N1CCN(Cc2ccccc2)CC1	-6.55%
OC1=C2C(=Nc3nc(-c4ccccc4)nn3C2c2cccc(Br)c2)CCC1 (stereo not shown)	-2.83%
Fc1ccc(N2CCN(Cc3ccc(Cl)cc3)CC2)cc1	-0.197%
Cc1cc(C)cc(NC(=O)C2CCN(S(=O)(=O)c3ccc(Cl)cc3)CC2)c1	1.86%
CC(C(=O)NCc1cccnc1)n1ncn2cccc2c1=O (stereo not shown)	9.72%
COc1ccc(-c2cn(-c3ccccc3)c3[n+]2CCS3)cc1	1.86%
COc1cc(C=C2C(=O)c3ccccc3C2=O)ccc1OCc1ccccc1	-3.44%
Cc1ccc(CCNC(=O)CSCc2nc(-c3sccc3C)oc2C)cc1	-4.71%
CCOC(=O)c1c(C)nc(N)nc1N	-0.415%
Cc1cc(NC(=O)c2cccc(C(=O)Nc3cc(C)on3)n2)no1	-10.8%
O=C1CC(c2ccccc2)c2c(-c3ccccc3)n[nH]c2O1 (stereo not shown)	4.31%
CCCC[C@H](NC(=O)[C@H](CS(=O)(=O)Cc1ccccc1C(F)(F)F)NC(=O)N1CCOCC1)C(=O)c1nc2ccccc2o1	-1.83%
Cc1cccc(-n2cnc3cc(C(=O)NCc4ccc5c(c4)OCO5)ccc32)c1	-3.78%
COc1ccc(-c2nc3scc(CCNC(=O)c4ccc(Br)cc4)n3n2)cc1	3.05%
O=c1c2ccccc2n2c(-c3c[nH]c4ccccc34)nnc2n1Cc1ccccc1	1.68%
COc1ccc(-c2cc(C(=O)NCc3ccco3)no2)cc1	2.01%
O=C(O)CC(CN1C(=O)C(O)=C(C(=O)c2ccccc2)C1c1ccccc1F)c1ccccc1 (stereo not shown)	5.03%
N#Cc1c(NC(=O)c2cc(-c3cccc(O)c3)on2)sc2c1CCCC2	0.628%

SMILES	% Inhibition @ 10 uM
COc1ccc(OC)c(NC(=O)c2ccc(Oc3ccccc3)cc2)c1	-5.54%
CN(C)S(=O)(=O)c1ccc(C(=O)NCCSc2c[nH]c3ccccc23)cc1	2.64%
Cc1cc(NS(=O)(=O)c2ccc(NC(=O)c3ccc(C(C)C)cc3)cc2)nc(C)n1	-4.63%
Cc1ccc(CCNC(=O)C2CCCN(S(C)(=O)=O)C2)cc1 (stereo not shown)	0.514%
Cc1ccc2[nH]c3c(c2c1)CCCC3(C)NC(N)=O (stereo not shown)	-4.26%
Cc1cc(-c2ccc(C)c(S(=O)(=O)N3CCN(c4ncccn4)CC3)c2)on1	2.24%
CCOC(=O)N1CCN(c2nc(-c3cccc(Cl)c3)c3c(n2)-c2ccccc2OC3)CC1	-1.06%
O=C(CSCc1cccc(Br)c1)N1CCN(c2ccccc2)CC1	-3.66%
Cc1cc(NC(=O)c2cc3nc(-c4ccco4)cc(C(F)(F)Cl)n3n2)no1	-1.57%
O=C(NCc1ccco1)C1c2ccccc2C(=O)N(C2CCCC2)C1c1cccs1 (stereo not shown)	4.36%
Cc1c(CCC(=O)N2CCCC2)c(=O)oc2c(C)c3occ(C(C)(C)C)c3cc12	7.17%
Cc1cc(C)c(C(=O)c2ccc(C(=O)NC(C)(C)C)cc2)c(C)c1	-3.79%
CC(NC(=O)c1ccccc1)c1ccc(Cl)cc1 (stereo not shown)	-3.27%
CCOc1ccc2c(c1)-c1c(sn(-c3ccc(C(C)C)cc3)c1=S)C(C)(C)N2	-2.48%
N#CC1(NC(=O)[C@H](CC2CCCCC2)N[C@@H](c2cccc(-c3ccccc3)c2)C(F)(F)F)CC1	-4.82%
O=c1oc2ccc(Br)cc2cc1-c1nc2ccccc2o1	5.42%
CCOc1ccc(C2C3=C(O)CC(C)(C)CC3=Nc3nc4ccccc4n32)cc1OC (stereo not shown)	-5.19%
CS(=O)(=O)c1ncc(Cl)c(C(=O)N(Cc2ccccc2)Cc2ccco2)n1	-4.64%
COc1cc(C2CC(=O)NC3=C2C(=O)CC(C)(C)C3)ccc1OC(C)C (stereo not shown)	-4.16%
CCc1nnc(NS(=O)(=O)c2ccc(NC(=O)c3ccc(F)c(F)c3)cc2)s1	-3.93%
CCOC(=O)c1cc2[nH]c3c(c2cc1Cl)CCCC3	6.31%
CC1(C)CC(=O)C2=C(C1)N(c1cccnc1)C(N)=C(C#N)C2c1ccc(Cl)cc1Cl (stereo not shown)	-2.87%
